Laboratory results: the supplement of paper PMC4466236
Over roughly 33,000 sequences, “E-score (dimensionless, -0.5 to 0.5)” has its median near -0.058; the highest 2% begin near 0.35. Some of the results follow.

Test system: MvaT
Test: PBM 8-mer E-score (mean of HK and ME arrays) (E-score (dimensionless, -0.5 to 0.5)); higher = stronger relative binding preference; most listed sequences are background and not binding sites
How it was run: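 Full-length P. aeruginosa MvaT, with glutathione S-transferase fused to its N-terminus (cloned into pTH6838 by isothermal assembly), was tested by protein binding microarray using a previously described protocol. Two universal double-stranded 60-mer arrays (ME and HK) were used, each with a constant 25-mer primer region and a variable 35-mer region covering all 8-mers. The rank-based 8-mer E-score (-0.5 to 0.5) is the mean of the two arrays, parsed with a custom Python script.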

Sequence | PBM 8-mer E-score
ATATTTGA | 0.363
ATGCCTTA | 0.0517
AGTCACCA | -0.0571
AATGGCAG | 7.27e-05
AGGTGACA | -0.0864
ACATAACA | 0.149
CAATATCA | 0.304
GTCAGAAC | 0.0545
CAGCGGAA | -0.0331
AGGTTACT | 0.0371
GAAGACGC | -0.203
CACCCCGG | -0.32
AATCACAC | 0.151
GGAGTTAC | -0.0861
GACGATTA | 0.0842
CCGACCCG | -0.281
CCGGGTGC | -0.271
CAAATGTA | 0.0762
CTATCTTA | 0.192
GCTAAATA | 0.272
CTCAACAG | -0.152
CCCTGATC | -0.224
CTGTCATA | -0.0239
ACCGGTCG | -0.188
CCCATCAC | -0.15

Sequence | PBM 8-mer E-score
CGAGAAGC | -0.243
ATCACAGC | 0.0367
AATGGGCC | -0.21
CCTGCTAC | -0.173
ACTCCGCA | -0.0998
ACAGAACA | -0.035
CCATGGCA | -0.147
TAGGCGCA | -0.0598
GAAACAGC | -0.128
CCGCTAAC | -0.124
GCGGAGTA | -0.163
ACCCGGGA | -0.218
CACAATCG | -0.0847
CCAAGCAA | 0.0281
CACGTGCC | -0.0431
AGTTAGAG | 0.135
CTGTTTCC | -0.0404
AATGATCC | 0.131
AGAACAAG | 0.0432
AAGTAGCT | -0.0477
GTTGTATA | 0.337
AAGAGGCA | -0.146
ACGTGTGC | -0.129
AAAGTCGG | 0.0698
GTTAGTGA | -0.0298

Sequence | PBM 8-mer E-score
AGAATTGA | 0.0231
CTGCGACC | -0.121
AACGCCGA | -0.239
TTATCCAA | 0.29
GACGGAAC | -0.13
AGCAGTGG | -0.0628
AGGTCTGA | -0.11
AGAAAAAT | 0.0732
ACTCGAGG | -0.0621
CCTTGCCG | -0.172
GACAGCGC | -0.151
AGCGGAAC | -0.0552
ATAGCGGA | 0.0413
GGACAATA | 0.222
CTAGCTTA | 0.0773
ACTATAAT | 0.436
CACTATGA | 0.0673
CCCAACAC | -0.0792
ACGTTGCG | -0.206
CCACAAAA | -0.00309
AGGAAATC | -0.135
AAATCATC | -0.125
GCCATAGC | -0.237
CCTGTAAC | 0.0801
AGACTCTG | 0.0263

Sequence | PBM 8-mer E-score
AAAAATGT | 0.0973
GTAGAGAA | -0.0127
AGCTCCCA | -0.313
ATTACTGC | 0.148
CACGGTCC | -0.229
CCACTTCA | 0.0378
ACCGTGCA | 0.0516
AAAAACTC | 0.108
CCAGAATA | 0.212
AACATCTA | 0.265
CCAACTAA | 0.117
GTGGTAAA | 0.0535
GATTCTGC | -0.159
CAGATTCA | 0.0109
ACCCTTCC | -0.184
ATTGAAAA | 0.208
ATCCCGAT | -0.0356
GCTAATTA | 0.352
GCGATCGA | -0.0642
ATCAAACG | -0.0333
ACTTCGGC | -0.0412
TCATACGA | -0.09
CTTTCATC | -0.0606
GAGCTGAC | -0.316
CGCGGCCC | -0.302

Sequence | PBM 8-mer E-score
GCCTTAAA | 0.129
ACATGTGG | 0.056
AAGTTGGA | 0.241
CGGAAGAC | -0.128
CTTTAGCA | 0.0383
ACCCATGG | -0.112
CGATATTA | 0.331
CCATGAGG | -0.203
GCAGAAAA | 0.148
CGTTAGGA | -0.0326
CGGTTTAA | 0.179
CACTATTA | 0.357
CATCAGAC | -0.0888
ACGCCCAT | -0.175
AACTGACT | 0.0393
ATTAGATC | 0.103
GCAAGCTA | -0.201
CACCTACA | -0.0302
ATCGGATG | -0.137
GCGTACAC | 0.0414
CTTGCAGC | -0.107
AACGTAAG | 0.0101
ATCTTTAC | 0.166
CAATACTG | 0.132
GATTCTGA | -0.00658

Sequence | PBM 8-mer E-score
TCCTGAGA | -0.121
AGAGGATC | -0.122
CCCAAAAA | 0.0436
TAATCGTA | 0.148
CCAAGAAC | -0.14
AGTTCAAT | 0.308
CCGCCTAC | -0.217
ACCTAATG | -0.0237
GTCCACAA | -0.0607
GCACACAC | -0.13
AAGTAATA | 0.379
TTAGCTAA | 0.232
ACTACAAA | 0.121
ATGTCGAG | -0.0422
GGTCGAGA | -0.0867
ACGATCCG | -0.0878
ATTGCGTG | 0.0773
ACCACAAG | -0.156
CGGTCCGC | -0.2
AGGTAACT | 0.162
CCTCAAGA | -0.154
AAAGAGAA | 0.0973
CCCTTTCC | -0.188
ACCAACAA | 0.0871
TCAACGAA | -0.0952

Sequence | PBM 8-mer E-score
ATGGCCAG | -0.256
AGCGAAAA | 0.103
ACCTTGCA | -0.00186
CCGTGATC | -0.247
ACCAGCGG | -0.131
GTATGCCA | 0.0023
ACTTTCCC | 0.153
CTTGTTTA | 0.198
AACGCGGT | -0.0925
CAATCTTA | 0.0597
ATTGCGTC | -0.0416
CACCCAAC | -0.0487
AACTTATG | 0.372
CGTAATTC | 0.225
TTGAAAAA | 0.218
AAAGTCTT | 0.238
ACTCTACT | 0.0819
ACGACGAA | -0.0134
AGAGAAGA | -0.0463
CCCCCAGA | -0.33
ATAAGCTA | 0.183
CGCCAGTC | -0.1
ACTTGCAG | 0.0173
CTTAACCC | 0.113
AAGTCAGA | -0.0529

Sequence | PBM 8-mer E-score
CACGGTCA | -0.146
AAGCTTGA | -0.24
ACCTACTC | -0.175
AGCCGGCC | -0.306
AGTATGTC | 0.111
GCCCAAAC | -0.0754
GAAATATC | 0.227
ATATCCGC | 0.187
AGTTGTTC | 0.176
CAAAAAGG | 0.0108
CTAATGTC | 0.0129
AGACTGTG | -0.134
GTACGGAA | -0.103
CAGCCTGG | -0.102
ATATCGGA | 0.19
TACCCGTA | 0.0309
CTCCTACC | -0.239
ATCGCCGA | -0.115
AGTCCCCA | -0.113
AAAAGGGT | -0.0876
TCGGATAA | -0.00106
TCTTATAA | 0.369
CTTCGCGA | -0.146
CGCGTAAC | 0.00987
ATTAAAGC | 0.262

Sequence | PBM 8-mer E-score
TCACTCCA | -0.0685
CAGCGCTC | -0.304
CGGTCAGA | -0.0901
AAATGGAC | 0.0192
AGCAGTTC | -0.151
TCAGGTAA | -0.0419
CGTTATAA | 0.39
ATCAGCCA | -0.0988
TACGGGGA | -0.178
AGGCCATC | -0.264
ACCTAGCC | -0.0954
AGGCTGTG | -0.117
ATGCCATC | -0.12
AACCCGGA | -0.134
CCGGTGCC | -0.18
GCATATAC | 0.311
ACGCGGTA | -0.0934
GTTCAGTA | 0.104
CCTGACCG | -0.219
CGTTATCC | 0.009
CAACTCTG | 0.0926
AACAGACC | 0.108
CTCGGATC | -0.138
AAAGATTT | 0.198
CATTCGCC | 0.0201

Sequence | PBM 8-mer E-score
CCCTTTTC | -0.195
AGAATCCC | -0.25
CTCGGGGC | -0.33
CTCCATTC | -0.121
CACAGTAC | 0.00579
AAATCATT | 0.238
CTACGGTC | -0.189
CACAACAC | 0.191
CAGTCCGG | -0.204
ATTGCTCC | -0.176
GTATAGCA | 0.0414
CCTTCCAA | -0.101
CATAGGCG | -0.161
TACACCTA | 0.00738
ACGGGCAT | -0.126
GCTAGAGC | -0.338
GCAGGGAC | -0.247
GAACGCTA | -0.0451
GGGCAAAA | -0.113
CCAGAGAG | -0.219
CGCTGGCC | -0.295
GTAGCCAA | -0.177
AAACCGTT | 0.0732
GTAGGCGA | 0.00233
AGTATAAG | 0.272

Sequence | PBM 8-mer E-score
CGACAGTC | -0.161
CGAGAGTA | -0.00732
AGCAGCTG | -0.254
CAGTGTGC | -0.156
ATAAGATA | 0.33
AACTCGAT | -0.0303
AAGACCAC | -0.183
CTCATTGA | -0.0757
AGGATGGC | -0.331
ACACTCCG | -0.0139
CAGAGTGA | -0.0469
ATTGGAGA | -0.0372
AATTGGAA | 0.215
CGGTGCGA | -0.219
CGATGCCC | -0.285
ACAACTCA | 0.164
CCAGACGG | -0.257
AGAGGTTA | 0.0212
AATTCGAT | 0.16
GTACTCAA | 0.0508
ACGTGGGA | -0.0973
AGGCTATC | -0.2
AATAGGAA | 0.158
TGCCGAAA | -0.0937
CCGCTATA | 0.0983

Sequence | PBM 8-mer E-score
AATCACCG | -0.05
GGATTGAA | -0.0812
AGGCGTTC | -0.124
ATTCGAGC | 0.00116
GTATGAAA | 0.222
TATAGACA | 0.111
GATGAGGA | -0.133
AAGTTAGT | 0.322
ACAGGGTA | -0.0199
GGGGGGGA | -0.241
AAGTAACG | 0.257
GGGGGTAA | -0.239
ATGGATAG | 0.0416
AGTTGCGC | 0.0513
ATAGACAA | 0.163
GAATACGA | 0.0283
TCACATGA | -0.0716
GGGGACAA | -0.0629
CACGAGTA | -0.0592
AACTACTG | 0.205
CCCCTGCC | -0.335
AACAGGGT | -0.031
ACCAAAAT | 0.209
CATGCATC | -0.115
CGATAACG | 0.0686

Sequence | PBM 8-mer E-score
AGGCCAGC | -0.293
GATAACGC | 0.0903
CAGATACA | 0.117
ACCCCCCC | -0.291
ACCCCGGC | -0.137
CTCAAGTA | 0.178
TAGGTACA | 0.0141
CAACATCA | 0.0517
CCTGCGGA | -0.141
GTCTTTGA | -0.0878
CCACGATC | -0.184
ACGTTTAT | 0.249
AGCAGACG | -0.169
CGCTGCCA | -0.217
ACACGACA | -0.098
TCCGTAAA | -0.0668
GTAGAGCA | -0.0664
AGCCGGCG | -0.252
CTTCTCAC | -0.186
CGACCCAG | -0.208
CCCTCGGA | -0.125
CAGGCCGA | -0.213
ACAACGAT | 0.0837
CCTCGCAC | -0.11
TCTGACCA | -0.036

Sequence | PBM 8-mer E-score
ACTCTGGG | 0.0708
AGCGCTCG | -0.243
CCTCATAA | -0.0267
AGTTGGTG | 0.0483
ACATGGCT | -0.0239
ATGGATTA | 0.214
ATCATTGC | 0.00293
GCGGCGAC | -0.346
ACAACCAC | 0.0264
CCACCGGA | -0.175
AGACAAGC | -0.0951
CTTCGGAC | -0.239
TGATACCA | 0.0438
ATCGCCCA | -0.125
CTGACGTC | -0.135
GAGAGATC | -0.197
AATTGGGT | 0.121
TCGATGCA | -0.0529
AAATCGAC | -0.0205
